Assay results published in publication PMC10726135.
The list shows a part of the results. At the low end of the ranking the order means little. The protein was read in a cell extract, so binding may be indirect.

target: T1, HNF4alpha2 (COS-7 nuclear extract) (UniProt P41235); assay: protein-binding microarray; conditions: COS-7 nuclear extract on double-stranded Agilent 4x180k PBM; binding buffer, salt, pH and temperature not given; high values mean tight binding; double strand, one strand shown; sequences stand for … in …GCCTAGGGAGATTAGAGTATCGGTCGA
T1 sequence: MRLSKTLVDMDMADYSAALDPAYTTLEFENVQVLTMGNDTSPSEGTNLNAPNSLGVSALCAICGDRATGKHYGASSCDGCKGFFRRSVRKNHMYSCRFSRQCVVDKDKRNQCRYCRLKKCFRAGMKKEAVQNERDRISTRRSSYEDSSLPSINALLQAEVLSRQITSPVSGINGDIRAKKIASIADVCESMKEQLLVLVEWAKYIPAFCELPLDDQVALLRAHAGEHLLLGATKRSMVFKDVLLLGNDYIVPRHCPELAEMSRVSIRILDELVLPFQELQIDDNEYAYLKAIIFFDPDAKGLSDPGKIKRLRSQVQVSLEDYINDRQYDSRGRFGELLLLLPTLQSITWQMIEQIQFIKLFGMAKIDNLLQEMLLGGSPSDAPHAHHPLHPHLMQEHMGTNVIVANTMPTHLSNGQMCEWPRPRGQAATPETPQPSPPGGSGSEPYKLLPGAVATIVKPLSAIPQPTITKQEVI

| Sequence | binding signal (log2 normalized intensity) |
| --- | --- |
| TTTTCAATCTTATTTTTACTATGTGGCATT | 1.8 |
| AGTTGGTGTTTTCCGGGGGCGGTTTTTCCA | 1.42 |
| AACAACTGCCACTTATTGTGTTATGTACTT | 1.57 |
| CCCTTCGCTAGAGCAAATACAGCACTCAAA | -1.22 |
| AAAAAATGGGCAAAGGACAATAATGAATAA | -1.04 |
| AGCAGGTTATCTAATGGAGAGGATGGGGAC | -1.13 |
| GGGGGAGGGAGATAGAGAAAGAAAAAGTAC | -0.948 |
| CTGCATTCCAGCTCAATCAAGGACTGGGCT | -0.876 |
| GAAAAGAAAAAACCCATCCACCCATCCAAA | 2.69 |
| GAGTTTAAGGTTGTACTTTGGAGTTTACTT | 3.85 |
| ATACTCCAAGCCTAGAAAAACAACTAAAGG | -1.16 |
| ATCGGCTTCCCTGGTCCTCAGGCCTTTGGA | 1.26 |
| CCCTACGTAAATGCACGGAAGCCTTCCCCG | -1.13 |
| AACCTTTGATCATTCCTGCACAGGACTGCT | 2.81 |
| TCACCCGATAAGCTGACCCCAAAACCCCCA | 5.75 |
| ACACAAAGGCAGAGCACTAAATCTCTCCTA | -1.22 |
| TAAAACTAGGAGAGTCCGGGGCAAACAAGG | -0.999 |
| AGTCCCAATCCCCCATCTATTTACAAAAGA | 2.71 |
| TAATGAGTGCTATCCCTGGAGCCTTAGAAG | -1.13 |
| AGGGAAGAGGCAAGGAAAGATAAATAGTGA | -1.07 |
| GGTATTCTTTCATCCCTCTCCCGCCTCTTG | 1.54 |
| TGGTTTTGTAAATATAGGATCATGTTGTCT | 2.09 |
| TGTTGGGGAATCAGTCCATAAATACACAAT | -0.733 |
| TCCACACCCCCCACTCTTCATATCTTCCCA | 3.07 |
| AAGGCCAAACACGGACAGGCAGGCCCAGAC | -1.14 |

| Sequence | binding signal (log2 normalized intensity) |
| --- | --- |
| AACGGTTCAAAGGACAGACTTTGGACCTGG | 7.15 |
| TACATTGCATATCAGCATGGCTGCAGAGAA | -1.1 |
| GCGTGAGTTTGCTGTCTTGACTTGGTTCGG | 1.75 |
| TGCCTCTCTGAACCTTCCTTAGAGAATGCT | -1.06 |
| CAGGAATGTTTCCTCTCCCAGCCCCTAGCC | 3 |
| GCTAAGATGTAGCAAGAATGTAAATAGCTA | -1.18 |
| CTGACCTTAGACCCTCAGGCTCCACCGGAT | 1.26 |
| ACTTTGAAGGCCCCAATTGCCAAGGGGGTG | -1.06 |
| AGGCAAACATAAACTCAGAGTCAAATCCCC | -0.631 |
| GACTTGAAGCCAGACTCTGCCATTTCCCAG | -1.11 |
| CCAGGGACTTACTCAACTAGCTCCATGTGA | -1.14 |
| AGAAGGGGTCAGGTAAGACAGCCTCCTGAA | -1.07 |
| CCCCTAAAGGAGGCAAGGTCCAAACTTCTC | 1.7 |
| AAAAACATGGGTCTCTTCCTCAGTTTGTTC | 1.71 |
| GATGCATGATTGCTCTCTACTTGGTGGGAG | 0.687 |
| CTCATTAATCATCCGTCACCCAGACAGACT | -0.98 |
| GTAAGGGGAGGAGCTGAAACAGTCTGATTC | -1.07 |
| ATCCACCCATCCAAAGGTCAGCAATCTCAA | 2.93 |
| TCTCTCATGCTATGCTCTCTCTCCACCTGG | 0.574 |
| CATCACCTAACTTGTGGCTGGGTGATCTGG | 1.54 |
| CTCTTTTTTCTTGTTGACTTTCCTATTGTC | 1.83 |
| AGAGAGAGAGAATGACCCTTGCTTGACCCA | 3.12 |
| ATGGAGATGAGAAACTTATTGTGAACTGGA | 0.573 |
| ACCAGGGCAGGGAAAGGGGGTTTGCAACCT | -1.13 |
| TCCTACCTTTCCCCTAAAGGAGGCAAGGTC | 0.0723 |

| Sequence | binding signal (log2 normalized intensity) |
| --- | --- |
| AGCCATTTATCAGGGTAATGAGTGCTATCC | 2.13 |
| TGTGGAGGTCTACCAGGAATATTGCCCCCT | 5.08 |
| GTTGAGAACTGAGTTTAGAATTTGAACTAT | 2.49 |
| TGGCATACTACAGAAATCTTTAAGTGCATT | 1.03 |
| TACCAAAGCCATGGCTCCAACCCGATTCTG | -1.11 |
| ACTACATTTCCAAGACCTCTTTGCGGATAG | -0.361 |
| GCAAGCTCCTGGTTGGGGCCTCCCTCCGTG | -1.13 |
| CCCCACCCTCCCACGCACTCGCCTGACTCC | 3.69 |
| CTCCTAAAGGCAGCCCCTTATCAGGAGAGG | -1.2 |
| CTCTTGCTTCACAGCCCTCCAACTATGCTA | 0.628 |
| TAGCCTTATCTCAGATGAGACTTTGGACTT | 7.96 |
| TTTATAGGCTAGAATGGAAACCAATAACTG | -1.23 |
| ATGACCTTTACCCCCATTTGGTAATGGGCC | 4.83 |
| ATTATCTGCTTTTATGACCTTTGACTGCAG | 6.64 |
| ATTGAAGTTACGTATTTTTGCCAAGGATAT | 0.87 |
| GAGGTGGAAGTGGCAGATTAGAGACCTCTA | -1.26 |
| AGGCCTATGGCGAAAAAGGAAATATCTTCC | -0.871 |
| CCACTGACAGGAGGTATGCCAGGAATGCTG | -1.14 |
| TTGTTTCATTGCACAGTTACTCCACAACTT | -0.769 |
| AAGCTCTGGAGTCCAAAGGTCAGCAAGCCT | 7.73 |
| AATGTATGGGCTATTTATGACGGTGTATGC | 1.13 |
| CTACATTCAAATCCTTGCTCTGTGGTTTAG | 1.07 |
| TCTGCAGTTCTGGGCCAAAGGTCATACCTG | 5.54 |
| TCAAAGCATTCCACATTCTCCACTGGGAAG | -1.12 |
| GACCTCCTGTCTCATCCTGTGACCAAGAAT | 0.365 |

| Sequence | binding signal (log2 normalized intensity) |
| --- | --- |
| CGACTTGCCTTGTGTACTCTATCCAGTAGA | 0.982 |
| GGCCAGCGCCAGGCTGGGGGCAGAGTTCAC | 4.55 |
| CTCAGTCATACCACATGGATGGATTCAGAT | 0.259 |
| GGCCCAGGAAGCTCCAGCGGGGTTTGAATC | -1.12 |
| TCTTCCATCGGACTTTGATCTGCCACATAC | 5.79 |
| GTGTTTGTCCTTTGTTGCAATGCTGGAACA | 1.25 |
| TGCTGGAATGAGGGAGGCAGCCACCTAGGC | -1.1 |
| GCTAGCATTGCTCAGACAGGGCAAAGGTGC | 2.52 |
| GCTTTGGACTTTGGGCTGTGTTTTGCCCCT | 4.7 |
| CTAAGAGCCGCAGAGCTAATGTTCAAATCC | -0.775 |
| CTCAAAGGAGGTCAGAACTGTGGACTCGCT | 0.551 |
| ATAAGACACATTCCATGCTTATCAGTGTAC | 0.893 |
| CTTGTTTGTCAAGTTTGGTAAGCAGACCCC | 2.65 |
| ATTCCCTTTCTCCTCCCCTCCCCTCCCCCC | 6.91 |
| GGGTCCACATTCCAGGAATATTCAGATATT | -0.976 |
| GGCTCAGGCCGGTTGGCCAGGTTCCTCCAC | -1.09 |
| AAACCACACACTCCATAACTTTGGGACACT | -1.08 |
| TGGATGGGGGAGGGGACTTCGCTGGAGGTG | -0.382 |
| AAAGATATCTCTGTGGATAGCTCAGGGATT | -0.751 |
| CCTGCCTACATCAAGAGGATTACATAACCA | -1.14 |
| GCTCCCAGTGCACACAGACTTTTGTGTGGT | 1.22 |
| CTGCTTTTATGACCTTTGACTGCAGAAGAT | 5.27 |
| ATAAGGCTGCCTCCTATCCTCTGATCCCCA | 1.85 |
| TTTACAGGACATAGTCCTCTGCATATTTCT | -0.722 |
| GATCAAGAGGAAGATCTTTTTGATGACTTT | 0.855 |

| Sequence | binding signal (log2 normalized intensity) |
| --- | --- |
| CAGAGTCCAGAGGTCACTTTGCTGCCTTTT | 4.5 |
| CAGGGAAGAGCCGGCCGGCGGGGTCACGTG | 2.79 |
| TTATATCCCCTGCCTGGGTCCTGGGAGCAA | 0.066 |
| TAGATAAACTACTTTATATTCCTTTGTATC | 0.86 |
| CTTTAGAGAAACGCACTCGCCTCTCCTGTT | -0.777 |
| CAGAAAGTCCGGGGGCCAGTTCACTCAGTC | -1.17 |
| GGTATGTATGGAATGTCACTTTCTGACAGG | 1.37 |
| TGGGTGGAAGGAAAAGAGGAAAACCAGCTC | -1.13 |
| TGAGGCAAAATTCCTCGCTAGCTGTCAATC | -1.18 |
| GCACAGTTACTCCACAACTTGTTCTATTGT | 1.31 |
| TCAGAGCTTGAAAAGTCTTTCTGCCAAAGT | 0.27 |
| TGTGCAGCTTTGTGTAAAACTTCAAAGAAG | -0.427 |
| CTGAGGTGGAAGGATCACCTGAGTCCAGAG | -0.288 |
| ATGTCTAACCTCCTGGGAATGCAGTCCAGT | 0.0532 |
| CCGGTTCCTCTGGATACCCTTCCCCCCAAG | 4.97 |
| TTTGGCTCTAGAGGAGTCCCCTTAAAATTC | 0.857 |
| ACGGCTGCTGTAACAAGTGGCTATAAACTA | -1.1 |
| GCCACCATTGATCTAACAGGAGGTGGAGCT | -1.18 |
| AGTGTGACCCTGAACCTACAGCCCCTGTGG | -0.752 |
| AGCTGGGGTGCCTGATAATGACTCTTGAAC | 1.23 |
| CCTTTTTGCATGAGAATCTGACCTTTGGTT | 6.46 |
| TTAGGAATGCAACTCTAACCTTTACCTTCT | 2.13 |
| TTCAATTTTTTTGTTGTTATCCATTTAAAA | 1.04 |
| CATCCTGACCATCTGCGAAATGGGGATAAA | -1.03 |
| CTAAATCTGAATAGAACTCAGGAAAGATCA | -0.905 |

| Sequence | binding signal (log2 normalized intensity) |
| --- | --- |
| TCCTGGTGCAGGGGGCGAGCATGGCCGCTC | -1.19 |
| CTCGGCATTCAGACAGACCCAGGGGAATAA | -1.1 |
| TACAGTCAGAGGCCTGAAGGCCCCCAGGTA | 2.04 |
| GCCACCTTGGTGAGAGATTAAACATGCTCT | 0.469 |
| CAAGGGATCGTCCAAATACCTAGCTGTTTG | -1.07 |
| TGCTGAAGATAAGACTTCCTCAGATAACCC | -0.855 |
| GTACTGGGACTGTGCAGACAAGATATGAGG | -0.778 |
| GAGCATATGTATGTCAGAGTATGTGTGTAT | 2.43 |
| TCAGAAGCCACCAGTGCAAATATAAAAGGC | -1.03 |
| AGCTTCCAGAATAGCCTCTGCAACTCAGAG | -1.1 |
| AGAATTCGATTGTTTAGGAGCCAATTATGC | 0.98 |
| TAATTAAGACTCAGTCGGCTGTCAAATCAC | -1.16 |
| TTGATATTTATCAAGATGAACTTTGACCCA | 10.8 |
| GAGGCAGGACCTTGGGAAAGGAGAAGCTGG | -1.14 |
| ACAGATAAGATTTGGAAAATATTGCCAATA | -1.08 |
| AGATTCCAGGGGAGGGTAAGAGTCCAACTT | 3.18 |
| TTGTAGCTCTCAGCTCCTACATTACACTCC | -1.17 |
| CCCGGCCAACGGTCGGAAGGGAGGTGCCAT | -1.08 |
| AGAGGCCAGCTAAAACTGCAGATTGACTCA | -1.02 |
| GTTTGAATTCTTGCCTATCCCATAGGTGAG | -1.04 |
